# Data taken from the supplement of paper PMC10369915.
# This is one part of the list. No stated cut-off is given here; in the data, active = 3.2 or more and inactive = the rest. Most of these values are background signal.
# Target: SHP2 C-SH2 domain E139D
# Assay: enrichment score (SH2-bound / input frequency) (ratio); bacterial display of known human phosphotyrosine sites (pTyr-Var adds point mutants) read by sequencing; higher = stronger binding; tyrosines were phosphorylated by kinases first
# Conditions: peptide library: pTyr-Var
# 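Further: displayed peptides selected on beads carrying the immobilized SH2 domain, with library peptides lacking any tyrosine serving as negative controls.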
row,Binder,enrichment score
1,TKHTFYKQPMF [GBA_Y451_D448H],inactive: 1.23
2,EICTQYEAMAS [GFAP_Y242_R239C],inactive: 0.808
3,SIIKDYFHRGA [GATM_Y203],inactive: 1.23
4,ITNLLYHVVGW [GBA_Y412],active: 3.7
5,QRASDYFSQQM [GBP6_Y333_A331S_YF],inactive: 0.97
6,TKDTFYKQPMV [GBA_Y451_F456V],inactive: 0.692
7,VDGSVYELHPS [GCK_Y413_K414E],inactive: 0.466
8,RENGPYFASFP [GDAP2_Y487_T489A_YF],inactive: 1.83
9,VKANTYENYWP [GATM_Y100_K102N],active: 4.94
10,ETRWNYHFEVV [GCNT3_Y267_K266N],inactive: 1.33
11,TKDTFHKQPMF [GBA_Y451_Y451H],inactive: 0.958
12,RIVEIYSRSLQ [GCH1_Y175_R178S],inactive: 0.804
13,TKDTFYKQPMF [GBA_Y451],inactive: 0.994
14,NFFEFYVDDPL [GCHFR_Y48_P53L_YF],inactive: 1.54
15,GISDEYHVIRR [GCDH_Y398_H403R],inactive: 0.685
16,SIIKDSFHRGA [GATM_Y203_Y203S],inactive: 0.921
17,NTYENYWPFYQ [GATM_Y103_K102N],active: 4.78
18,ITNVLYHVVGW [GBA_Y412_L410V],inactive: 2.66
19,RAADFYSQQMA [GBP6_Y334_YF],inactive: 0.669

# Target: SHP2 C-SH2 domain wild-type
# Assay: as above
# Conditions: peptide library: pTyr-Var
row,Binder,enrichment score
1,TKHTFYKQPMF [GBA_Y451_D448H],inactive: 1.22
2,EICTQYEAMAS [GFAP_Y242_R239C],inactive: 0.768
3,SIIKDYFHRGA [GATM_Y203],inactive: 1.01
4,ITNLLYHVVGW [GBA_Y412],active: 4.16
5,QRASDYFSQQM [GBP6_Y333_A331S_YF],inactive: 0.828
6,TKDTFYKQPMV [GBA_Y451_F456V],inactive: 0.929
7,VDGSVYELHPS [GCK_Y413_K414E],inactive: 0.525
8,RENGPYFASFP [GDAP2_Y487_T489A_YF],inactive: 0.907
9,VKANTYENYWP [GATM_Y100_K102N],active: 3.6
10,ETRWNYHFEVV [GCNT3_Y267_K266N],inactive: 1.31
11,TKDTFHKQPMF [GBA_Y451_Y451H],inactive: 0.577
12,RIVEIYSRSLQ [GCH1_Y175_R178S],inactive: 0.702
13,TKDTFYKQPMF [GBA_Y451],inactive: 0.951
14,NFFEFYVDDPL [GCHFR_Y48_P53L_YF],inactive: 1.24
15,GISDEYHVIRR [GCDH_Y398_H403R],inactive: 0.783
16,SIIKDSFHRGA [GATM_Y203_Y203S],inactive: 0.797
17,NTYENYWPFYQ [GATM_Y103_K102N],active: 4.35
18,ITNVLYHVVGW [GBA_Y412_L410V],inactive: 2.74
19,RAADFYSQQMA [GBP6_Y334_YF],inactive: 0.82

# Target: SHP2 N-SH2 domain L43F
# Assay: as above
# Conditions: peptide library: pTyr-Var
row,Binder,enrichment score
1,TKHTFYKQPMF [GBA_Y451_D448H],inactive: 1.2
2,EICTQYEAMAS [GFAP_Y242_R239C],inactive: 0.649
3,SIIKDYFHRGA [GATM_Y203],inactive: 1.29
4,ITNLLYHVVGW [GBA_Y412],active: 3.44
5,QRASDYFSQQM [GBP6_Y333_A331S_YF],inactive: 0.753
6,TKDTFYKQPMV [GBA_Y451_F456V],inactive: 0.837
7,VDGSVYELHPS [GCK_Y413_K414E],inactive: 0.648
8,RENGPYFASFP [GDAP2_Y487_T489A_YF],inactive: 0.759
9,VKANTYENYWP [GATM_Y100_K102N],active: 4.83
10,ETRWNYHFEVV [GCNT3_Y267_K266N],inactive: 0.882
11,TKDTFHKQPMF [GBA_Y451_Y451H],inactive: 0.694
12,RIVEIYSRSLQ [GCH1_Y175_R178S],inactive: 0.759
13,TKDTFYKQPMF [GBA_Y451],inactive: 1.91
14,NFFEFYVDDPL [GCHFR_Y48_P53L_YF],inactive: 1.13
15,GISDEYHVIRR [GCDH_Y398_H403R],inactive: 0.723
16,SIIKDSFHRGA [GATM_Y203_Y203S],inactive: 0.919
17,NTYENYWPFYQ [GATM_Y103_K102N],active: 4.27
18,ITNVLYHVVGW [GBA_Y412_L410V],inactive: 2.48
19,RAADFYSQQMA [GBP6_Y334_YF],inactive: 0.722

# Target: SHP2 N-SH2 domain T42A
# Assay: as above
# Conditions: peptide library: pTyr-Var
row,Binder,enrichment score
1,TKHTFYKQPMF [GBA_Y451_D448H],inactive: 2.11
2,EICTQYEAMAS [GFAP_Y242_R239C],inactive: 0.688
3,SIIKDYFHRGA [GATM_Y203],inactive: 1
4,ITNLLYHVVGW [GBA_Y412],inactive: 3.14
5,QRASDYFSQQM [GBP6_Y333_A331S_YF],inactive: 0.766
6,TKDTFYKQPMV [GBA_Y451_F456V],inactive: 0.609
7,VDGSVYELHPS [GCK_Y413_K414E],inactive: 0.557
8,RENGPYFASFP [GDAP2_Y487_T489A_YF],inactive: 0.81
9,VKANTYENYWP [GATM_Y100_K102N],active: 5.06
10,ETRWNYHFEVV [GCNT3_Y267_K266N],inactive: 1.08
11,TKDTFHKQPMF [GBA_Y451_Y451H],inactive: 0.568
12,RIVEIYSRSLQ [GCH1_Y175_R178S],inactive: 0.744
13,TKDTFYKQPMF [GBA_Y451],active: 3.84
14,NFFEFYVDDPL [GCHFR_Y48_P53L_YF],inactive: 1.18
15,GISDEYHVIRR [GCDH_Y398_H403R],inactive: 0.817
16,SIIKDSFHRGA [GATM_Y203_Y203S],inactive: 0.699
17,NTYENYWPFYQ [GATM_Y103_K102N],active: 4.5
18,ITNVLYHVVGW [GBA_Y412_L410V],inactive: 2.68
19,RAADFYSQQMA [GBP6_Y334_YF],inactive: 0.779

# Target: SHP2 N-SH2 domain T52S
# Assay: as above
# Conditions: peptide library: pTyr-Var
row,Binder,enrichment score
1,TKHTFYKQPMF [GBA_Y451_D448H],inactive: 1.28
2,EICTQYEAMAS [GFAP_Y242_R239C],inactive: 0.634
3,SIIKDYFHRGA [GATM_Y203],inactive: 1.11
4,ITNLLYHVVGW [GBA_Y412],active: 3.46
5,QRASDYFSQQM [GBP6_Y333_A331S_YF],inactive: 0.703
6,TKDTFYKQPMV [GBA_Y451_F456V],inactive: 0.588
7,VDGSVYELHPS [GCK_Y413_K414E],inactive: 0.755
8,RENGPYFASFP [GDAP2_Y487_T489A_YF],inactive: 0.881
9,VKANTYENYWP [GATM_Y100_K102N],active: 3.99
10,ETRWNYHFEVV [GCNT3_Y267_K266N],inactive: 0.887
11,TKDTFHKQPMF [GBA_Y451_Y451H],inactive: 0.822
12,RIVEIYSRSLQ [GCH1_Y175_R178S],inactive: 0.911
13,TKDTFYKQPMF [GBA_Y451],inactive: 1.88
14,NFFEFYVDDPL [GCHFR_Y48_P53L_YF],inactive: 1.07
15,GISDEYHVIRR [GCDH_Y398_H403R],inactive: 0.709
16,SIIKDSFHRGA [GATM_Y203_Y203S],inactive: 0.926
17,NTYENYWPFYQ [GATM_Y103_K102N],active: 4.99
18,ITNVLYHVVGW [GBA_Y412_L410V],inactive: 2.47
19,RAADFYSQQMA [GBP6_Y334_YF],inactive: 0.827

# Target: SHP2 N-SH2 domain wild-type
# Assay: as above
# Conditions: peptide library: pTyr-Var
row,Binder,enrichment score
1,TKHTFYKQPMF [GBA_Y451_D448H],inactive: 1.19
2,EICTQYEAMAS [GFAP_Y242_R239C],inactive: 0.512
3,SIIKDYFHRGA [GATM_Y203],inactive: 1.05
4,ITNLLYHVVGW [GBA_Y412],active: 3.37
5,QRASDYFSQQM [GBP6_Y333_A331S_YF],inactive: 1.12
6,TKDTFYKQPMV [GBA_Y451_F456V],inactive: 0.99
7,VDGSVYELHPS [GCK_Y413_K414E],inactive: 0.925
8,RENGPYFASFP [GDAP2_Y487_T489A_YF],inactive: 0.879
9,VKANTYENYWP [GATM_Y100_K102N],active: 3.74
10,ETRWNYHFEVV [GCNT3_Y267_K266N],inactive: 1.59
11,TKDTFHKQPMF [GBA_Y451_Y451H],inactive: 0.786
12,RIVEIYSRSLQ [GCH1_Y175_R178S],inactive: 0.846
13,TKDTFYKQPMF [GBA_Y451],inactive: 0.92
14,NFFEFYVDDPL [GCHFR_Y48_P53L_YF],inactive: 1.19
15,GISDEYHVIRR [GCDH_Y398_H403R],inactive: 0.758
16,SIIKDSFHRGA [GATM_Y203_Y203S],inactive: 0.856
17,NTYENYWPFYQ [GATM_Y103_K102N],active: 4.18
18,ITNVLYHVVGW [GBA_Y412_L410V],inactive: 2.53
19,RAADFYSQQMA [GBP6_Y334_YF],inactive: 0.989
